Assay results as given in the supplement of paper PMC12355420.
Structures can show the parent of a compound that is named as a salt. Some of the results follow. No stated cut-off is given here; in the data, active = 0.5 or less and inactive = the rest. Many values rest on one well or one pass, so single values are uncertain.

Key:
Settings in all cases: 50 µM; 24 h
[1] = tested on: HeLa VPS33A reporter cells; test: relative cell viability (CellMask signal) vs DMSO (fraction of DMSO); higher = less cytotoxic;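 further: primary screen of an FDA-approved drug library in HeLa reporter cells in 96-well format, CellMask signal normalized to DMSO-treated wells set as 1, under 0.5 deemed highly cytotoxic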
[2] = tested on: HeLa VPS33A R498W KI + HA-SDC1-FLAG; test: relative GAG core protein HA-SDC1 amount per cell number vs DMSO (fraction of DMSO); higher = more SDC1 (GAG core protein);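 further: HA-SDC1 level read out by In-Cell Western staining with an anti-HA antibody against the N-terminal tag, screening FDA-approved library drugs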
[3] = tested on: HeLa VPS33A KO + NLuc-VPS33A R498W; test: relative mutant VPS33A R498W amount (NanoLuc luminescence) vs DMSO (fraction of DMSO); HeLa model of a glycosaminoglycan (GAG) storage disease; KI is knock-in and KO knock-out; SDC1 is syndecan 1; higher = higher mutant VPS33A level;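 further: screen of an FDA-approved drug library, NanoLuc luminescence read after lysing the treated cells, taken as a measure of mutant VPS33A protein stability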

Compound	relative cell viability [1]	relative GAG core protein HA-SDC1 amount per cell number [2]	relative mutant VPS33A R498W amount [3]
CN(C)CCC(c1ccc(Cl)cc1)c1ccccn1 (stereo not drawn) [Chlorpheniramine Maleate]	1.12	inactive: 1.34	1.15
CN(CCOc1ccc(CC2SC(=O)NC2=O)cc1)c1ccccn1 (stereo not drawn) [Rosiglitazone maleate]	0.851	inactive: 0.908	0.794
O=C(Nc1ccc([N+](=O)[O-])cc1Cl)c1cc(Cl)ccc1O [Niclosamide]	1.03	inactive: 0.632	1.58
CC(=O)Oc1ccccc1C(=O)O [Aspirin (Acetylsalicylic acid)]	1.05	inactive: 1.04	1.09
CCCCCCCCCCCCOS(=O)(=O)[O-].[Na+] [Sodium dodecyl sulfate]	1.04	inactive: 1.03	1.01
C=C1C[C@@]23CC[C@H]4[C@@](C)(CCC[C@@]4(C)C(=O)O[C@@H]4O[C@H](CO)[C@@H](O)[C@H](O)[C@H]4O)[C@@H]2CC[C@]1(O[C@@H]1O[C@H](CO)[C@@H](O)[C@H](O)[C@H]1O[C@@H]1O[C@H](CO)[C@@H](O)[C@H](O)[C@H]1O)C3 [Stevioside]	1.09	inactive: 1.02	1.5
CCCC(=O)O[C@]1(C(=O)COC(C)=O)CC[C@H]2[C@@H]3C[C@H](F)C4=CC(=O)C=C[C@]4(C)[C@@]3(F)[C@@H](O)C[C@@]21C [Difluprednate]	1.14	inactive: 0.89	0.756
N=C(N)c1ccc2cc(OC(=O)c3ccc(N=C(N)N)cc3)ccc2c1 [Nafamostat Mesylate(FUT-175)]	0.989	inactive: 0.863	0.648
Cc1ccc(S(=O)(=O)NC(=O)NN2CCCCCC2)cc1 [Tolazamide]	1.01	inactive: 0.769	1.18
CN(C)/N=N/c1[nH]cnc1C(N)=O [Dacarbazine]	1.19	inactive: 0.671	1
COc1ccccc1 [Anisole Methoxybenzene]	1.2	inactive: 1.13	1.19
O=C(O)c1cc(-c2ccc(F)cc2F)ccc1O [Diflunisal]	1.14	inactive: 0.639	0.506
CC(C)(Oc1ccc(C(=O)c2ccc(Cl)cc2)cc1)C(=O)O [Choline Fenofibrate]	1.12	inactive: 0.962	0.82
CCCCCCCCCCCC(=O)O [Lauric Acid]	1.09	inactive: 0.933	1.58
O=C(/C=C/c1ccc(O)c(O)c1)O[C@H](Cc1ccc(O)c(O)c1)C(=O)O [Rosmarinic acid]	1.02	inactive: 1.03	1.34
COc1ccc(C(Cl)=C(c2ccc(OC)cc2)c2ccc(OC)cc2)cc1 [Chlorotrianisene]	1.01	inactive: 0.97	1.13
O=C(O[C@@H]1C[C@@H]2C[C@H]3C[C@H](C1)N2CC3=O)c1c[nH]c2ccccc12 [Dolasetron]	1.05	inactive: 0.873	1.08
O=C(C[S+]([O-])Cc1ccco1)NC/C=C\COc1cc(CN2CCCCC2)ccn1 (stereo not drawn) [Lafutidine]	0.978	inactive: 1.06	1.61
C[C@@H]1O[C@@H](O[C@@H]2[C@@H](O)[C@H](OCCc3ccc(O)c(O)c3)O[C@H](CO[C@@H]3O[C@H](CO)[C@@H](O)[C@H](O)[C@H]3O)[C@H]2OC(=O)/C=C/c2ccc(O)c(O)c2)[C@H](O)[C@H](O)[C@H]1O [Echinacoside]	0.965	inactive: 0.682	1.28
CC1(C)CCC(C)(C)c2cc(NC(=O)c3ccc(C(=O)O)cc3)ccc21 [Tamibarotene]	0.744	inactive: 0.503	1.04
N[C@@H](CS)C(=O)O	0.922	inactive: 1.4	1.16
Nc1cccc2c1C(=O)N(C1CCC(=O)NC1=O)C2=O (stereo not drawn) [Pomalidomide (CC-4047)]	1.22	inactive: 1.1	0.933
N[C@@H](CSCCCO)C(=O)O [Fudosteine]	0.931	inactive: 1.18	0.991
Cc1ccc(C)c(OCCCC(C)(C)C(=O)O)c1 [Gemfibrozil]	1.03	inactive: 1.03	0.981
N[C@@H](Cc1cc(I)c(Oc2cc(I)c(O)c(I)c2)c(I)c1)C(=O)O [L-Thyroxine]	1.14	inactive: 1.07	1.17
CC(C)(C)C(=O)Oc1ccc(S(=O)(=O)Nc2ccccc2C(=O)NCC(=O)O)cc1 [Sivelestat (ONO-5046)]	1.15	inactive: 0.922	1.31
